Measurements from PubChem BioAssay AID1768 (National Center for Advancing Translational Sciences (NCATS), 2009).
Hit rate of the full screen: of about 270,000 compounds, about 620 (0.23%) were called active. Inconclusive means that the source gave no clear call. Such entries were picked first, then a sample of the others. Calls come from the whole dose curve; as a rule, active = well fitted inhibition curve with a large enough effect in the polarisation, with a control signal flat (not every such curve was filed as active); inconclusive = small, poorly fitted or top-dose-only effect, or effect the other way, or a change in a side signal; inactive = no such curve, though single readings can be large or run the other way; the % refers to the polarisation. Potencies beside an inconclusive call are fits to weak or partial responses and may not hold up. “Side channel” marks fits to a control or component signal instead of the main read-out.

Target: Menin (Homo sapiens) (UniProt O00255)
Sequence of UniProt O00255 (O00255 whole entry, looked up): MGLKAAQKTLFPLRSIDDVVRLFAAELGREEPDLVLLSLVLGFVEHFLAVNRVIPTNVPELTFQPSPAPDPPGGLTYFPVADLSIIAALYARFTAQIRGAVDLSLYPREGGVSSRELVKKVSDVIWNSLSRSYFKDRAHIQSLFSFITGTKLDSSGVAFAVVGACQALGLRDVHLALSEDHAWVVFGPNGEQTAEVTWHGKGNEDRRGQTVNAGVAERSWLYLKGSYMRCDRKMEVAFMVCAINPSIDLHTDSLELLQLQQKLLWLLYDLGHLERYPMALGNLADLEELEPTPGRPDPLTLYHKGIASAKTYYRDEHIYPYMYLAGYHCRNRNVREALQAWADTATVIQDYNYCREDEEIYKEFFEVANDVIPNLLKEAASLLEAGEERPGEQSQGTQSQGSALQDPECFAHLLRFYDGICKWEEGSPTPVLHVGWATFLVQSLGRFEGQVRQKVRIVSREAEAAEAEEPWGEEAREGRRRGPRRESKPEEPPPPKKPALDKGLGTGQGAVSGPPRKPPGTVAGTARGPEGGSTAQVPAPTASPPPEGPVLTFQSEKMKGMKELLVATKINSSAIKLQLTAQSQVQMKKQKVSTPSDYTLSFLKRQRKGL
Assay: qHTS Assay for Inhibitors Targeting the Menin-MLL Interaction in MLL Related Leukemias: Competition With Texas Red Labeled MLL-derived Mutant Peptide
Details: fluorescence polarization; series mostly up to 61.6 µM
Potency is the fitted concentration of half-maximal effect; tags give direction and shape of the fitted curve or compound fluorescence and quenching.

SMILES | Potency
c1cncc(-c2noc(-c3cccc4ccccc34)n2)c1 | inactive
CC(=O)N1CCCc2cc(S(=O)(=O)N3CCN(C4CCCCC4)CC3)ccc21 | inconclusive: 3.98 µM [inhibitor, partial curve]
Cc1nc(C(=O)Nc2ccccc2Cl)cc2c1[nH]c1ccccc12 | inconclusive: 14.1 µM [inhibitor, partial curve]
CC1=C(C(=O)N2CCOCC2)C(c2ccccc2F)C2=C(CCCC2=O)N1 (configuration not stated) | inactive
Cc1cccc(C)c1-n1c(C)cc(/C=C2\C(=O)NN(c3ccccc3)C2=O)c1C | inconclusive: 15.8 µM [quencher, side channel, partial curve]
O=C1CCCC2=C1C(c1cccc(O)c1)C1=C(N2)c2ccccc2C1=O (configuration not stated) | inconclusive: 10 µM [quencher, side channel, partial curve]
Cc1ccc2c(CN3CCCCC3C)cc(=O)oc2c1C (configuration not stated) | inconclusive: 28.2 µM [inhibitor, partial curve]
CCOC(=O)C1=C(C)NC2=C(C(=O)C(C(=O)OCC)C(c3cccc(OC)c3)C2)C1c1ccccn1 (configuration not stated) | inactive
Cc1ccc(-c2nc(SCC(N)=O)c(C#N)c3c2CCCC3)cc1 | inconclusive: 5.62 µM [fluorescent, side channel, partial curve]
CCn1c(=O)c(=O)[nH]c2cc(C(=O)N3CCN(c4ccccc4F)CC3)ccc21 | inconclusive: 28.2 µM [fluorescent, side channel, partial curve]
Cc1nn(C)c(C(=O)NNC(=S)NCc2ccco2)c1Br | inconclusive: 14.1 µM [quencher, side channel, partial curve]
Cc1ccc(C(=O)NCc2ccncc2)cc1S(=O)(=O)N1CCOCC1 | inconclusive: 7.08 µM [quencher, side channel, single point]
CCCCN(CC)CCCNC(=O)c1cn(C)c(=O)c2c1c1ccccc1n2C | inconclusive: 7.94 µM [inhibitor, partial curve]
COc1ccc(C2C(C(=O)c3cccs3)=C(O)C(=O)N2c2nncs2)cc1 (configuration not stated) | inactive
CN1/C(=C/C(=O)c2ccc(Cl)cc2)Sc2cc3c(cc21)OCO3 | inconclusive: 0.708 µM [inhibitor, full curve, poor fit]
CC(NCC(O)COCCC12CC3CC(CC(C3)C1)C2)c1ccccc1 (configuration not stated) | inconclusive: 2.24 µM [fluorescent, side channel, full curve]
COC(=O)c1nnn(-c2nc(N(C)C)nc(N(C)C)n2)c1C | inconclusive: 20 µM [inhibitor, single point]
CCn1nnnc1SCC(=O)N(C1CCCCC1)C1CCCCC1 | inconclusive: 14.1 µM [fluorescent, side channel, partial curve]
CCOc1ccccc1N1CCN(C(=O)NC(C)c2ccc(F)c(F)c2)CC1 (configuration not stated) | inconclusive: 44.7 µM [inhibitor, partial curve, poor fit]
O=C(C/C=N/OCc1c(Cl)cccc1Cl)c1cnc(-c2ccccc2)s1 | inconclusive: 14.1 µM [quencher, side channel, partial curve]
COc1cccc(NC(=S)Nc2ccc(O)cc2)c1 | inconclusive: 11.2 µM [quencher, side channel, partial curve]

SMILES | Potency
O=C(Nc1ccc2[nH]c3c(c2c1)CCCC3)c1ccco1 | inconclusive: 31.6 µM [quencher, side channel, single point]
C/C(=C\COc1c2ccoc2cc2oc(=O)ccc12)CCC(O)C(C)(C)O (configuration not stated) | inactive
COCCNC(=S)N(CCc1c(C)[nH]c2ccc(Cl)cc12)Cc1cccnc1 | inconclusive: 15.8 µM [quencher, side channel, partial curve]
CC(C)NCc1c(O)c(Br)cc2oc3c(c12)CCCC3 | inactive
Cc1cccc(N2CCN(C(=O)Cc3ccccc3[N+](=O)[O-])CC2)c1C | inconclusive: 8.91 µM [inhibitor, full curve, poor fit]
COc1ccccc1NC(=O)Nc1nnc(CC(=O)Nc2ccccc2C)s1 | inconclusive: 39.8 µM [fluorescent, single point]
OC[C@@H]1[C@@H](c2ccc(F)cc2)C(c2cccc(Cl)c2)=NN1c1ccccc1 | inconclusive: 17.8 µM [quencher, side channel, partial curve]
CN1C(=O)NC(c2ccc(C(F)(F)F)cc2)C2=C1CC(C)(C)CC2=O (configuration not stated) | inconclusive: 15.8 µM [inhibitor, partial curve, poor fit]
O=C(/C=C/c1cn(-c2ccccc2)nc1-c1cccnc1)N1CCCCC1 | inconclusive: 12.6 µM [fluorescent, side channel, partial curve]
O=C(CCc1ccc(S(=O)(=O)N2CCOCC2)cc1)Nc1ccc2ccccc2c1 | inconclusive: 12.6 µM [quencher, side channel, partial curve]
CC(C)CNS(=O)(=O)c1ccc(CCC(=O)NCc2ccc(Cl)cc2)cc1 | inactive
O=[N+]([O-])c1cccc2nc(-c3ccccc3)c(-c3ccccc3)nc12 | inconclusive: 25.1 µM [quencher, side channel, single point]
CC1CC(C)CN(C(=O)Cn2nnc(-c3ccccc3)n2)C1 (configuration not stated) | inactive
COc1cc(C(=O)NNC(=S)NC(=O)c2ccc(Cl)cc2)cc(OC)c1OC | inconclusive: 11.2 µM [quencher, side channel, partial curve]
O=C(Cc1ccc(Cl)cc1)Nc1ccc(SC(F)F)cc1 | inconclusive: 39.8 µM [quencher, side channel, single point]
O=C1CCC(c2ccccc2)(c2ccccc2)CC1 | inconclusive: 31.6 µM [inhibitor, single point]
CC1=NN(c2ccccc2)C(=O)C1N=Nc1ccc(S(N)(=O)=O)cc1 (configuration not stated) | inconclusive: 12.6 µM [quencher, side channel, partial curve]
S=C(NCc1ccco1)NC1CCCc2ccccc21 (configuration not stated) | inconclusive: 15.8 µM [quencher, side channel, partial curve]
O=C(O)C1CC=CC2CCN(C3CCCCC3)C(=O)C21 (configuration not stated) | inactive
Cc1ccc(-c2cnc(-c3ccncc3)o2)cc1 | inconclusive: 39.8 µM [inhibitor, partial curve]
O=C(Nc1cccc(S(=O)(=O)C(F)F)c1)c1ccc(Cl)c(S(=O)(=O)N2CCOCC2)c1 | inconclusive: 10 µM [quencher, side channel, partial curve]

SMILES | Potency
CC1(C)OC(=O)C(=Cc2ccc(-c3ccc(Cl)c(C(=O)O)c3)o2)C(=O)O1 | inactive
CCc1ccc(-c2cc(C(=O)N/N=C/c3c[nH]c4ccccc34)[nH]n2)cc1 | inconclusive: 2.51 µM [quencher, side channel, full curve]
Cc1cc(Br)cc(C)c1OCC(=O)NNC(=O)CCC(=O)NCc1ccccc1 | inconclusive: 7.08 µM [fluorescent, side channel, partial curve]
CC1=NN(C(N)=S)C(=O)C1N=Nc1cccc(Cl)c1 (configuration not stated) | inconclusive: 12.6 µM [quencher, side channel, partial curve]
Cc1cnc(CNc2cc(-c3ccc(N(C)C)cc3)ncn2)cn1 | inactive
CC(C)=NNc1nc(-c2ccc([N+](=O)[O-])cc2)cs1 | inconclusive: 22.4 µM [quencher, side channel, partial curve]
CCC(CC)NCC(O)COc1ccc(Br)cc1 (configuration not stated) | inconclusive: 22.4 µM [fluorescent, side channel, partial curve]
COc1ccc(/C=N/NC(=S)Nc2ccccc2)cc1COc1ccccc1F | inconclusive: 28.2 µM [inhibitor, single point]
COc1ccc(Nc2nc(-c3ccc(OC)cc3)cs2)cc1 | inconclusive: 31.6 µM [quencher, partial curve]
FC(F)(F)c1ccc(Cl)c(N/N=C/c2ccc(N3CCOCC3)s2)c1 | inconclusive: 35.5 µM [quencher, side channel, partial curve]
Cc1cc(S(=O)(=O)NC2CCCCC2)ccc1OCC(=O)NCc1ccccn1 | inconclusive: 6.31 µM [inhibitor, partial curve]
CCCCNC(=O)Cn1cnc2c(cnn2-c2ccc(C)c(C)c2)c1=O | inactive
CCc1cc2ccccc2nc1SCC(=O)Nc1cc(C)on1 | inconclusive: 15.8 µM [inhibitor, partial curve]
CCOC(=O)c1c(-c2ccc(C)o2)csc1NC(=S)NC(=O)N(C)C | inconclusive: 31.6 µM [quencher, side channel, single point]
CCOC(=O)N1C(=O)[C@](CC)(c2ccccc2)N1C(=O)OCC | inconclusive: 20 µM [inhibitor, single point]
COCc1cc(C)n(CC(=O)Nc2ccccc2OC)c(=O)c1C#N | inactive
CCOC(=O)C1=C(C)NC(C)=C(C(=O)OCC)C1C(=O)OCC(=O)NC(C)C | inconclusive: 28.2 µM [inhibitor, single point]
O=C(c1cccc(F)c1)N1CCN(c2ccc([N+](=O)[O-])c(N3CCCCC3)c2)CC1 | inconclusive: 12.6 µM [inhibitor, partial curve]
O=C(Nc1sc2c(c1C(=O)O)CCC2)c1ccco1 | inconclusive: 31.6 µM [quencher, side channel, single point]
CSC(=S)N/N=C(\C)c1ccc(Br)cc1 | inconclusive: 2.24 µM [quencher, side channel, full curve]
